Laboratory results: PubChem BioAssay (NCI)
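Growth conditions: 96-well plates. Treatment: test compound, 48 hours, 5 concentrations. Analysis: linear interpolation between bracketing concentrations; unreached endpoints set to highest concentration. Abbreviation: GI50, concentration required for 50% inhibition of growth.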 For part of its entries the source gives two or more results. The list is limited to them. The source may hold further records. For some assays here: The records of an entry are repeats in other runs, samples, wells, individuals or studies. Records carry a tag for their origin. Letters hold for one entry only.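 TGI is the concentration that stops growth completely.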 For some assays here: The tests behind the records often covered other concentration ranges, not given here; some values may only mark the edge of a range.

How the values were obtained:
Assay in all cases: inhibition of tumour cell growth, NCI panel, 48 h
HL-60(TB) leukemia = test system: HL-60(TB) leukemia
NCI-H23 lung = test system: NCI-H23 lung
HCT-15 colon = test system: HCT-15 colon
SF-268 CNS = test system: SF-268 CNS
A549 NSCLC = test system: A549 NSCLC
HT29 colon = test system: HT29 colon
CCRF-CEM leukemia = test system: CCRF-CEM leukemia
MCF7 breast = test system: MCF7 breast
U251 CNS = test system: U251 CNS
HCT-116 colon = test system: HCT-116 colon
MOLT-4 leukemia = test system: MOLT-4 leukemia
UACC-257 melanoma = test system: UACC-257 melanoma
RPMI-8226 leukemia = test system: RPMI-8226 leukemia
NCI-H522 lung = test system: NCI-H522 lung
PC-3 prostate = test system: PC-3 prostate
MALME-3M melanoma = test system: MALME-3M melanoma
IGROV1 ovarian = test system: IGROV1 ovarian
BT-549 breast = test system: BT-549 breast
SK-OV-3 ovarian = test system: SK-OV-3 ovarian
NCI-H460 lung = test system: NCI-H460 lung
HOP-62 NSCLC = test system: HOP-62 NSCLC
UO-31 renal = test system: UO-31 renal
OVCAR-4 ovarian = test system: OVCAR-4 ovarian
UACC-62 melanoma = test system: UACC-62 melanoma
HS 578T breast = test system: HS 578T breast
MDA-N = test system: MDA-N
OVCAR-3 ovarian = test system: OVCAR-3 ovarian
SNB-75 CNS = test system: SNB-75 CNS
SR leukemia = test system: SR leukemia
NCI-H226 lung = test system: NCI-H226 lung
ACHN renal = test system: ACHN renal
NCI/ADR-RES ovarian = test system: NCI/ADR-RES ovarian
DU-145 prostate = test system: DU-145 prostate
SK-MEL-5 melanoma = test system: SK-MEL-5 melanoma
LOX IMVI melanoma = test system: LOX IMVI melanoma
SF-295 CNS = test system: SF-295 CNS
EKVX NSCLC = test system: EKVX NSCLC
HOP-92 NSCLC = test system: HOP-92 NSCLC
SF-539 CNS = test system: SF-539 CNS
RXF 393 renal = test system: RXF 393 renal
XF 498 CNS = test system: XF 498 CNS
COLO 205 colon = test system: COLO 205 colon

COc1ccc([C@@]23Oc4cc(OC)cc(OC)c4[C@]2(O)[C@H](O)[C@H](C(=O)N(C)C)[C@H]3c2ccccc2)cc1
TGI (HL-60(TB) leukemia): 51.3 nM and 3.6 µM | TGI (NCI-H23 lung): 71.1 nM, 8.54 nM, 274 nM | TGI (HCT-15 colon): 1.27 µM, 79.7 nM, 330 nM | TGI (SF-268 CNS): 426 nM, 18.5 nM, 256 nM | TGI (A549 NSCLC): 114 nM, 25 µM, 229 nM | TGI (HT29 colon): 59.5 nM, 7.47 nM, 117 nM | TGI (CCRF-CEM leukemia): 143 nM, 25 µM, > 100 µM | TGI (MCF7 breast): 259 nM, 2.96 µM, 1.45 µM | TGI (U251 CNS): 2.99 µM, 311 nM, 113 nM | TGI (HCT-116 colon): 33.7 nM, 4.67 nM, 122 nM | TGI (MOLT-4 leukemia): 124 nM, 2.05 µM, > 100 µM | TGI (UACC-257 melanoma): 913 nM, 22.3 nM, 119 nM | TGI (RPMI-8226 leukemia): 112 nM, 3.67 nM, 192 nM | TGI (NCI-H522 lung): 57.6 nM and 4.71 nM | TGI (PC-3 prostate): 228 nM and 10.1 µM | TGI (MALME-3M melanoma): 57.3 nM, 15.7 nM, 321 nM | TGI (IGROV1 ovarian): 105 nM, 3.26 µM, 2.44 µM | TGI (BT-549 breast): 522 nM and 20.4 nM | TGI (SK-OV-3 ovarian): 180 nM, 4.18 nM, 18.8 µM | TGI (NCI-H460 lung): 141 nM and 11.7 µM | TGI (HOP-62 NSCLC): 69.1 nM, 11.6 nM, 160 nM | TGI (UO-31 renal): 84 nM, 4.32 nM, 96.5 nM | TGI (OVCAR-4 ovarian): 849 nM, 6.75 nM, 297 nM | TGI (UACC-62 melanoma): 41.2 nM, 7.5 nM, 117 nM | TGI (HS 578T breast): 926 nM, 26.5 nM, 168 nM | TGI (MDA-N): 45.2 nM and 2.5 µM | TGI (OVCAR-3 ovarian): 419 nM, 11.4 nM, 120 nM | TGI (SNB-75 CNS): 105 nM, 10.7 nM, 320 nM | TGI (SR leukemia): 24.5 nM, 25 µM, 54.2 µM | TGI (NCI-H226 lung): 69.7 nM and 835 nM | TGI (ACHN renal): 32.6 nM, 3.24 nM, 36.3 nM

C/C(=N\NC(=S)N1CCC1)c1ccccn1
TGI (OVCAR-3 ovarian): 5.62 nM and > 65.3 µM

COc1cccc(-c2cc(=O)c3cc(N4CCN(C)CC4)ccc3[nH]2)c1
TGI (NCI-H23 lung): 7.19 µM and > 100 µM | TGI (NCI/ADR-RES ovarian): 3.23 µM and > 100 µM | TGI (HCT-15 colon): 5.31 µM and > 100 µM | TGI (DU-145 prostate): 9.14 µM and > 100 µM | TGI (U251 CNS): 4.93 µM and > 100 µM | TGI (SK-MEL-5 melanoma): 3.26 µM and > 100 µM | TGI (LOX IMVI melanoma): 7.93 µM and > 100 µM | TGI (SF-295 CNS): 4.6 µM and > 100 µM | TGI (EKVX NSCLC): 9.01 µM and > 100 µM | TGI (NCI-H226 lung): 5.32 µM and 66 µM | TGI (HOP-92 NSCLC): 8.56 µM and > 100 µM

CN(Cc1cnc2nc(N)nc(N)c2n1)c1ccc(C(=O)NC(CCC(=O)O)C(=O)O)c2ccccc12 (stereo not given)
TGI (HOP-62 NSCLC): 93.3 nM and > 1 mM | TGI (SF-539 CNS): 65.3 nM and > 1 mM

COc1ccccc1N=Nc1c(O)ccc2ccccc12
GI50 (CCRF-CEM leukemia): 7.61 µM [sample A, mean of 2 tests] and > 100 µM [sample B, 1 test]

CCCCCCCCCCCCCC(=O)O[C@H]1CC[C@H](NC(=O)[C@H](OC)[C@H](O)[C@@H](O)[C@H](O)/C=C/C(C)C)C(=O)N(C)C1
TGI (RXF 393 renal): 15 µM and 16.2 nM | TGI (XF 498 CNS): 15 µM and 356 nM | TGI (COLO 205 colon): 102 nM and 3.64 nM | TGI (NCI-H226 lung): 345 nM and > 23.8 µM
